Results on 29 molecules are retold here after PubChem BioAssay AID1745853 (National Center for Advancing Translational Sciences (NCATS), 2022).

The list shows a part of the results. The main result of the screen is listed elsewhere. These columns were measured beside it and carry no call.

Common to all, as to test: Primary Screen for Target Class Profiling of Small Molecule Inhibitors of Methyltransferases
Test [1] concerns the target Glycine N-methyltransferase (Homo sapiens) (UniProt Q14749). The following applies: purified enzyme, MTase-Glo SAH luminescence; measured here: GNMT inhibition; at 40 µM; stronger effect = lower value. Summed up:
(§1)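 Each enzyme was assayed with SAM and its substrate. SAH formation detected by MTase-Glo luminescence; single-point 40 uM screen[…].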

The target of test [2] is Guanidinoacetate N-methyltransferase (Homo sapiens) (UniProt Q14353). To be noted: purified enzyme, MTase-Glo SAH luminescence; measured here: GAMT inhibition; at 40 µM; stronger effect = lower value. Summed up:
as §1

Test [3] concerns the target Histamine N-methyltransferase (Homo sapiens) (UniProt P50135). To be noted: purified enzyme, MTase-Glo SAH luminescence; measured here: HNMT inhibition; at 40 µM; stronger effect = lower value. Summed up:
as §1

Test [4] concerns the target Nicotinamide N-methyltransferase (Homo sapiens) (UniProt P40261). The following applies: purified enzyme, MTase-Glo SAH luminescence; measured here: NNMT inhibition; at 40 µM; stronger effect = lower value. In outline:
as §1

In test [5] the target is Phenylethanolamine N-methyltransferase (Homo sapiens) (UniProt P11086). To be noted: purified enzyme, MTase-Glo SAH luminescence; measured here: PNMT inhibition; at 40 µM; stronger effect = lower value. In outline:
as §1
% is set by controls: 0 for no effect and ±100 for the full control effect.

`CC(C)OCCCn1c(=O)c2ccccc2n2c(SCC(=O)Nc3ccc(F)cc3)nnc12`: the activity change, negative = inhibition in test [1] is -1.39%; in test [2] it was 6.26%; in test [3] it was -0.311%; in test [4], -3.42%; in test [5], 1.71%.

For the molecule `Cn1c(CCNC(=O)CC2CCOCC2)nc2ccccc21`, the activity change, negative = inhibition is -0.812% in test [1]; -9.08% in test [2]; 3.7% in test [3]; -1.25% in test [4]; 2.05% in test [5].

As for `O=C(NCCCc1ccccc1)c1nc2sccn2c1-c1cccc(C(F)(F)F)c1`, the activity change, negative = inhibition in test [1] was -3.64%; in test [2], -7.26%; in test [3] it was -4.73%; in test [4], -16.8%; in test [5], -4.46%.

Take `COc1ccc(OC)c(S(=O)(=O)N2CCC(C)CC2)c1`: the activity change, negative = inhibition in test [1] was -0.01%; in test [2], 3.55%; in test [3], 3%; in test [4], 1.9%; in test [5], -3.67%.

For `C=C1[C@@H]2[C@H]3OC(=O)C(=C)[C@@H]3CC[C@@](C)(O)[C@@H]2C[C@@H]1O[C@@H]1O[C@H](CO)[C@@H](O)[C@H](O)[C@H]1O`, the activity change, negative = inhibition was -0.561% in test [1]; -3.77% in test [2]; 4.39% in test [3]; -12.2% in test [4]; 2.41% in test [5].

`CN1CC(=O)N(C2CCNCC2)Cc2c(NCCCO)ncnc21`: the activity change, negative = inhibition in test [1] is -2.11%; in test [2], -1.89%; in test [3] it was -4.02%; in test [4], -3.27%; in test [5], -13.4%.

Regarding `CC(C(=O)NCc1cccc(F)c1)n1ccc2cc(S(=O)(=O)N3CCCCC3)ccc21` (centres undefined), the activity change, negative = inhibition in test [1] stood at 5.59%; in test [2], 0%; in test [3], 8.6%; in test [4] it was 6.61%; in test [5] it was 6.51%.

Take `COc1ccc2cc3n(c2c1)CC(C)(C(=O)NCC1CCCO1)N(Cc1ccccc1)C3=O` (centres undefined): the activity change, negative = inhibition in test [1] is -2.86%; in test [2], 3.5%; in test [3] it was 0.723%; in test [4], -2.08%; in test [5], -0.001%.

As for `CS(=O)(=O)c1ccc([C@H](CC2CCCC2)C(=O)Nc2nccs2)cc1`, the activity change, negative = inhibition in test [1] is 1.72%; in test [2] it was -0.298%; in test [3], 6.25%; in test [4] it was -20.2%; in test [5], -8.11%.

For the molecule `CC1=C[C@@H](CNC(=O)C(C)(C)C)[C@H](C(C)C)C[C@H]1Cc1nnc(-c2ccncc2)o1`, the activity change, negative = inhibition is -9.67% in test [1]; -5.35% in test [2]; -10.7% in test [3]; -20.4% in test [4]; -8.28% in test [5].

Regarding `CCOc1ccccc1CN1CCN(Cc2nccn2CC)CC1CCO` (centres undefined), the activity change, negative = inhibition in test [1] is -5.89%; in test [2], -4.88%; in test [3], -3.31%; in test [4] it was -7.05%; in test [5], -1.03%.

Regarding `C=CCn1c(=O)c2ccc(C(=O)NC(C)C)cc2n2c(=O)n(CC(=O)Nc3c(C)cccc3C)nc12`, the activity change, negative = inhibition in test [1] is 3.51%; in test [2], 0.091%; in test [3], 3.87%; in test [4] it was 3.67%; in test [5] it was -1.57%.

With `CC(C)n1c(=O)c2ccc(C(=O)NC3CCCCC3)cc2n2c(=O)n(CC(=O)c3ccc(F)cc3)nc12`, the activity change, negative = inhibition in test [1] came to 6.82%; in test [2], 2.85%; in test [3], 12.7%; in test [4] it was 1.9%; in test [5] it was 6.29%.

Consider `CC(C)CCNC(=O)C1(C)Cn2c(cc3ccccc32)C(=O)N1CCc1ccco1` (centres undefined), for which the activity change, negative = inhibition in test [1] was -10.9%; in test [2], 1.07%; in test [3], -2.37%; in test [4] it was -12.3%; in test [5], -1.78%.

For `O=c1c2ccccc2n2c(SCc3ccc(F)cc3)nnc2n1CCc1ccccc1`, the activity change, negative = inhibition in test [1] is -5.88%; in test [2] it was -3.36%; in test [3] it was -2.45%; in test [4], -7.62%; in test [5], -7.09%.

For `CC(=O)N(C1CC1)C1CCOC2(CCN(C(=O)Cn3c(=O)oc4ccccc43)CC2)C1` (centres undefined), the activity change, negative = inhibition in test [1] is -1.11%; in test [2] it was -0.571%; in test [3], 2.32%; in test [4], 2.79%; in test [5], -0.889%.

Regarding `CCOC(=O)C1CCN(C(=O)c2ccc3nccn3c2)CC1`, the activity change, negative = inhibition in test [1] was -0.755%; in test [2] it was 1.68%; in test [3] it was 3.06%; in test [4] it was -1.57%; in test [5], -5.91%.

For the molecule `Cc1ncc(Cl)cc1NCc1ccc(C(=O)N[C@@H](CC2CCCC2)C(=O)NC2CC2)s1`, the activity change, negative = inhibition in test [1] was -9.5%; in test [3], 6.91%; in test [4] it was -15.5%; in test [5] it was 19.7%.

Turning to `O=C(C1CN(C2CCCC2)C(=O)N1)N1CCN(c2ncccn2)CC1` (centres undefined), the activity change, negative = inhibition in test [1] is -0.795%; in test [2] it was 0.549%; in test [3] it was 1.66%; in test [4] it was -2.49%; in test [5] it was 2.05%.

Take `C=CCn1c(=O)c2c(nc(-c3ccc(S(=O)(=O)O)cc3)n2C)n(C)c1=O`: the activity change, negative = inhibition in test [1] was 3.37%; in test [2], 7.48%; in test [3], 13%; in test [4], -5.25%; in test [5], 3.79%.

For the molecule `CCn1c(CN(C)C)nnc1C1CCN(C(=O)Cn2nc(C)cc2N)CC1`, the activity change, negative = inhibition in test [1] was -5%; in test [2] it was -6.79%; in test [3], -1.78%; in test [4], -7.86%; in test [5], -7.55%.

As for `COCCNC(=O)[C@H]1C[C@H](Oc2ccccc2)CN1Cc1ccncc1`, the activity change, negative = inhibition in test [1] was -4.98%; in test [2] it was -8.93%; in test [3], -2.75%; in test [4], -10.4%; in test [5], -5.49%.

In the case of `CC(C)(O)C1CC=C(C(=O)OCC2OC(Oc3c(O)cc(C(=O)O)cc3O)C(O)C(O)C2O)CC1` (centres undefined), the activity change, negative = inhibition in test [1] was 0.961%; in test [2], 3.37%; in test [3] it was 9.12%; in test [4] it was -9.08%; in test [5], 3.6%.

On to `O=C(NCc1ccccc1)c1ccc2c(=O)nc3c(-c4ccccc4)n[nH]n3c2c1`, for which the activity change, negative = inhibition in test [1] is -26%; in test [2], 2.85%; in test [3], -0.543%; in test [4] it was -0.485%; in test [5] it was -5.14%.

On to `CCc1ccc(NC(=O)CSc2nnc3n(CCC(C)C)c(=O)c4ccccc4n23)cc1`, for which the activity change, negative = inhibition in test [1] was -1.17%; in test [2], 5.12%; in test [3] it was 2.12%; in test [4], -6.33%; in test [5], 2.14%.

On to `OC[C@H]1O[C@@H](Oc2cc(O)cc(-c3cc4ccc(O)cc4o3)c2)[C@H](O)[C@@H](O)[C@@H]1O`, for which the activity change, negative = inhibition was 0.483% in test [1]; 0.51% in test [2]; 7.46% in test [3]; -8.18% in test [4]; 4.21% in test [5].

As for `OC1(c2csc(CN3CCOCC3)n2)CCN(Cc2ccc(F)cc2)CC1`, the activity change, negative = inhibition in test [1] was -1.19%; in test [2] it was -1.66%; in test [3], 1.38%; in test [4], -1.71%; in test [5], -4.56%.

`CN1C(=O)c2cc(C(=O)N3CCCCC3)nn2CC1(C)C(=O)NCc1ccccc1` (centres undefined): the activity change, negative = inhibition is 4.35% in test [1]; 0% in test [2]; 4.67% in test [3]; 5.31% in test [4]; 1.1% in test [5].

For `CCOc1ccc(N(C(=O)c2ccc(Cl)cc2)S(=O)(=O)c2ccc3c(c2)n(C)c(=O)n3C)cc1`, the activity change, negative = inhibition is -5.31% in test [1]; 3.6% in test [2]; -3.83% in test [3]; -4.36% in test [4]; -4.19% in test [5].
